In paper PMC12136788:
This is one part of the list.

B1: chr12:24812190:24812291:-|3pUTR|ENSG00000060982|msi1|FALSE|unique (ssRNA)
RNA: GGGAGUUCUACAGUCCGACGAUCUUUACUAUCUCCUAUCCUGAUAGGUGGAAGGUUUACUGAAUUGGAAAUUGGUUGACUAUUAGUUUUUAACUAAAAUGUGCAAUAACACAUUGCAGUUUCCUCAAACUAGUUUCCUAUGAUCAACAGAGGAUUGAGCAUCA
B2: chr17:5489330:5489445:+|CDS|ENSG00000167842|unk|FALSE|unique (ssRNA)
RNA: GGGAGUUCUACAGUCCGACGAUCACGUUGACUUUCUUUGAUGAGCUUCAUAAUGUUGGCAGAGAUCAUGGGACUAGUGAUUUUAGGGAGAGUUUAGUAUCCCUGGUUCAGAACUCCAGAAAACUACAGAACAUUAGAGACAAUCAACAGAGGAUUGAGCAUCA
B3: ENSG00000107863:be:win_4951|CDS|ENSG00000107863|bound_else_gene|NA|bound_elsewhere_windowed (ssRNA)
RNA: GGGAGUUCUACAGUCCGACGAUCGAGAGGCUUUUCCGAGGAAAACUGCAAGAAGUGACUAAGAGCAGCCGGAGAAAUUCUGAAGGAAGUGAAUUAAGUUGCACCGAGGGAAGUUUAACAUCAAGUUUAGAUAGCCGGAGACAGCAACAGAGGAUUGAGCAUCA
B4: ENSG00000198589:be:win_1801|CDS|ENSG00000198589|bound_else_gene|NA|bound_elsewhere_windowed (ssRNA)
RNA: GGGAGUUCUACAGUCCGACGAUCACAGUCAACAUAUAUAACACCAUUCGGAGAGUUGGAACAGUGCUUCUCAUCAUGCACACGCUGAAGUACUACUACUGGGCAGUGAAUCCUCAGGAUCGAAGUGGUAUCACCCCAAAAGGACAACAGAGGAUUGAGCAUCA
B5: chr1:159061598:159062691:-|three_prime_utr|ENSG00000163568|control|control|control (ssRNA)
RNA: GGGAGUUCUACAGUCCGACGAUCUCAAUCAGAUUGUAAGUUACCUGAAAGCUGCAGUUCACAGGCUCCUCUCUCCACCAAAUUAGGAUAGAAUAAUUGCUGGAUAAACAAAUUCAGAAUAUCAACAGAUGAUCACAAUAAACACAACAGAGGAUUGAGCAUCA
B6: chr19:811491:811550:+|3pUTR|ENSG00000011304|msi1_unk|FALSE|overlapping (ssRNA)
RNA: GGGAGUUCUACAGUCCGACGAUCUAGCAAUAUUUCCAGUUGACCAAAUAUUCUAAUCUUUUUUCAUUUAUAUGCAAAAGAAAUAGUUUUAAGUAACUUUUUAUAGCAAGAUGAUACAAUGGUAUGAGUGUAAUCUAAACUUCCCAACAGAGGAUUGAGCAUCA

These binders were tested against MSI1 full-length (mouse, UniProt Q61474 1-362) (assay: nsRBNS (natural sequence RNA bind-n-seq); RBNS binding buffer (assumed for nsRBNS): 25 mM Tris pH 7.5, 150 mM KCl, 3 mM MgCl2, 0.01% Triton X-100, 500 ug/ml BSA, 20 U/ml SUPERase-In, 4 C; UNK is unkempt and MSI1 is Musashi-1; names of the RNAs are library labels; protein concentration not given here; high values mean tight binding).
Sequence of UniProt Q61474 (Q61474 whole entry): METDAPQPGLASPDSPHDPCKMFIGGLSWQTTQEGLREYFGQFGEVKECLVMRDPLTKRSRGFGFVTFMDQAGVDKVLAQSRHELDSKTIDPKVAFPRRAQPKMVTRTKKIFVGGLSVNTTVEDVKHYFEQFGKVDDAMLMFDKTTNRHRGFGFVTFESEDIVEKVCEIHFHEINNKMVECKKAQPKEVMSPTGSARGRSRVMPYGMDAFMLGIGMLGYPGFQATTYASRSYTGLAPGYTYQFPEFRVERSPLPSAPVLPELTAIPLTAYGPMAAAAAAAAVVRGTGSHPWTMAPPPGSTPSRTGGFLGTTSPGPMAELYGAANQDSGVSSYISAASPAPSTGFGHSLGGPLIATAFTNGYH
Binder B1 has a binding signal of 0.804 enrichment R. Binder B2 has a binding signal of 1.88 enrichment R. For B3, the binding signal was 0.79 enrichment R. Work on B4 yielded a binding signal of 0.541 enrichment R. Binder B5 has a binding signal of 1.94 enrichment R. Work on B6 yielded a binding signal of 0.9 enrichment R.
